The text below walks through data of article PMC4336329 (PLoS ONE, 2015).

SMILES strings stand for the structures. Hit rate of the full screen: of about 310,000 compounds, about 2,200 (0.71%) showed an effect of 50% or more. The effect is printed as a negative number. The list shows a part of the results.

The target in this experiment is human ether-à-go-go-related gene (hERG) potassium channel (human, UniProt Q12809). Description: primary screen, population patch clamp on CHO cells stably expressing hERG.
Sequence of human ether-à-go-go-related gene (hERG) potassium channel (Q12809 whole entry, looked up): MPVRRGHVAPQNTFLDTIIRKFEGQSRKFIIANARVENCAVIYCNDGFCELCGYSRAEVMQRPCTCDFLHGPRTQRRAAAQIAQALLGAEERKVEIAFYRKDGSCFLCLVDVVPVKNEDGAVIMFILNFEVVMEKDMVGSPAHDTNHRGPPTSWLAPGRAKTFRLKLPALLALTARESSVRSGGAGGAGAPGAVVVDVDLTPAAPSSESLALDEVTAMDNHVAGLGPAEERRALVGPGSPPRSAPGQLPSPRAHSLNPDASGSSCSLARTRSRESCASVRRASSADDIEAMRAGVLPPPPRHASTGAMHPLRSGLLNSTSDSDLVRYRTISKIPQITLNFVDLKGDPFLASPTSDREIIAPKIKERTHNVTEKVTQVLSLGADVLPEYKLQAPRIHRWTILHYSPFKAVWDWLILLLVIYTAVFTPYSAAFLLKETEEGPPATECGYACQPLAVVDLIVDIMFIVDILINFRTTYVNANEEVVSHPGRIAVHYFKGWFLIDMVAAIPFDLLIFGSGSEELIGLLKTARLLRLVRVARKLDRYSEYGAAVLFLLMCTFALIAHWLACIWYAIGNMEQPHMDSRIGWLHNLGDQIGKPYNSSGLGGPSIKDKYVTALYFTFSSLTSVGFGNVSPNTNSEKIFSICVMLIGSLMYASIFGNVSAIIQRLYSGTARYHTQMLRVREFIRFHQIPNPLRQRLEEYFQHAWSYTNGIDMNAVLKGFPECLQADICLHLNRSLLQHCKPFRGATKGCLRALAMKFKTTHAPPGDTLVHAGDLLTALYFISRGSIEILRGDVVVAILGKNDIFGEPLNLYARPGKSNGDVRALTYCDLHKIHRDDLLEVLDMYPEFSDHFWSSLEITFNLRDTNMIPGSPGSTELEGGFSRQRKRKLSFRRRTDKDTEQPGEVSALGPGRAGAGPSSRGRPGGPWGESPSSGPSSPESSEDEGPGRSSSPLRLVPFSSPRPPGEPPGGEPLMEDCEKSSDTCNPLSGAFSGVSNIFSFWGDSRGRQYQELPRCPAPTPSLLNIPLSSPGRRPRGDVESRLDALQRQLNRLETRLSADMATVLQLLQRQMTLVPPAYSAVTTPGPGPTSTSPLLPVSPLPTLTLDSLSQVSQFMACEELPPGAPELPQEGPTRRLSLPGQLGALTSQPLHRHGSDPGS
On to `Cc1nn(CCC(=O)NNC(=S)Nc2ccccc2)c(C)c1Br`, for which the “hERG current change (%, negative = inhibition) at 1uM” value worked out at 14.4%. Take `CCc1ccccc1Nc1nc2ccccc2n1C(C)C`: the “hERG current change (%, negative = inhibition) at 1uM” value is listed as 10.7%. Next, `O=C(NCC1CC1(Cl)Cl)Nc1ccc(Cl)c(Cl)c1` (stereo not drawn): 8.4%; `COc1cc(/C=N\NC(=O)c2ccc(C)nc2)ccc1OC(=O)c1ccco1`: -7.6%. Next, `NC(=O)c1c(NC(=O)C2CCCO2)sc2c1CCC2` (stereo not drawn): -7%. In the case of `Cc1cccc2cc(=O)[nH]c(C)c12` it was 8.27%; in that of `O=C(NCCc1ccccc1)C1(c2ccccc2)CCCC1`, 13.4%; in that of `COc1ccc(Cl)c2sc(NC(=O)C3=COCCO3)nc12`, 11.9%. Turning to `CC(NC(=O)c1cccs1)c1ccc2c(c1)OCO2` (stereo not drawn), the “hERG current change (%, negative = inhibition) at 1uM” value is -1.87%.

For `CC(C)(SC(=S)N1CCCCCC1)C(=O)O`, the “hERG current change (%, negative = inhibition) at 1uM” value stood at 18.2%. As for `O=C(Nc1ccccc1)c1ccc2c(c1)OCCCO2`, the “hERG current change (%, negative = inhibition) at 1uM” value turned out to be 3.4%. In the case of `COc1ccccc1CNC(=O)C1CCCN(c2cnccn2)C1` (stereo not drawn) it was 15.8%; in that of `O=C(c1cc2ccccc2o1)N1CCN(Cc2ccc3c(c2)OCO3)CC1`, 2.51%. For `CC(=O)Nc1ccc2c(c1)C(=O)N(C1CCCCC1)C2=O`, the “hERG current change (%, negative = inhibition) at 1uM” value came out at 3.07%.

Turning to `CN(CCc1cnn(C)c1)C(=O)CCc1nnc(CCCc2ccccc2)o1`, the “hERG current change (%, negative = inhibition) at 1uM” value was determined as 6.58%. With `Cc1nc(N)c(C#N)c(-c2cccnc2)c1C`, the “hERG current change (%, negative = inhibition) at 1uM” value is reported as 1.67%. Next, `Cc1ccc(NS(=O)(=O)c2cccc(C(=O)NNC(=O)c3ccco3)c2)c(C)c1`: 7.23%; `CCNc1nc(SC(C(C)=O)C(C)=O)nc(N(C)C)n1`: 13.6%; `O=C(O)CN1CCN(Cc2ccc(F)cc2Cl)C1=O`: 2.82%. Next, `COc1cc(NC(=S)NC(=O)c2ccccc2C)ccc1NC(=O)c1cccs1`: 16.4%. With `Cn1nc(-c2ccccc2)cc1NS(=O)(=O)c1ccccc1`, the “hERG current change (%, negative = inhibition) at 1uM” value was found to be 9.07%. For the compound `Cc1ccc(C(=O)NC2CCCCNC2=O)cc1` (stereo not drawn), the “hERG current change (%, negative = inhibition) at 1uM” value came to 11.2%. In the case of `O=C1C=CC(=O)N1c1cccc(-c2ccccc2)c1` it was 11.9%. In the case of `Cc1oncc1C(=O)N1CCCC(CO)(Cc2ccc(F)cc2F)C1` (stereo not drawn) it was 11.8%; in that of `CN(C)c1ccc(CNCCC2CCOC(C)(C)C2)cc1.Cl` (stereo not drawn), 12%. In the case of `CCCCSCCCNC(=O)Nc1ccc(CC)cc1` it was 8.64%. Turning to `CCOc1cc(C(=S)N2CCOCC2)ccc1OC(=O)c1cc(OC)c(OC)c(OC)c1`, the “hERG current change (%, negative = inhibition) at 1uM” value was determined as 11.1%. For `CC(=O)N1CCc2cc(S(=O)(=O)NC(CC(C)C)C(=O)Nc3ccc4c(c3)OCCO4)ccc21` (stereo not drawn), the “hERG current change (%, negative = inhibition) at 1uM” value came to 15.9%.

Consider `CC1CCCCN1CCCNC(=O)c1c(O)nc2ccccn2c1=O` (stereo not drawn), for which the “hERG current change (%, negative = inhibition) at 1uM” value amounted to 20.8%.

For `CCN(c1ccccc1)c1ncnc2c1cnn2-c1ccccc1`, the “hERG current change (%, negative = inhibition) at 1uM” value was 6.26%. In the case of `COc1cccc(CN2CCNC(=O)C2CC(=O)N(C)CCC2CCOCC2)c1OC` (stereo not drawn) it was 3.28%; in that of `O=C(NC1=NCCS1)c1ccc(Cl)c(S(=O)(=O)N2CCc3ccccc32)c1`, 8.34%. Next, `O=C(c1ccc(CNS(=O)(=O)c2cccc(Cl)c2)cc1)N1CCCC1`: 15.2%. In the case of `O=C(O)c1ccc(NS(=O)(=O)/C=C/c2ccccc2)cc1O` it was 6.71%; in that of `CC(C)(C)NC(=O)CSc1nc2ccc(Nc3nc(N4CCOCC4)nc(N4CCOCC4)n3)cc2s1`, 0.618%; in that of `COc1ccc(NC(=O)C2CCCN(S(=O)(=O)c3ccc4c(c3)CC(C)N4C(C)=O)C2)cc1` (stereo not drawn), 18.6%.

Regarding `Cc1ccccc1N1CCN(S(=O)(=O)Cc2ccccc2)CC1`, the “hERG current change (%, negative = inhibition) at 1uM” value came to 13.1%. In the case of `COc1nnc(-c2ccc(N3CCCCC3)c(NC(=O)C3CCCCC3)c2)c2ccccc12` it was -0.481%.

On to `S=C(Cc1ccccc1)NCCc1ccccc1`, for which the “hERG current change (%, negative = inhibition) at 1uM” value is -14.9%. In the case of `CCN(CC(=O)NC1CCS(=O)(=O)C1)c1nc(-c2ccccc2)nc2ccccc12` (stereo not drawn), the “hERG current change (%, negative = inhibition) at 1uM” value is -8.26%.

For the compound `Nc1cc2c([N+](=O)[O-])cccc2o1`, the “hERG current change (%, negative = inhibition) at 1uM” value turned out to be 5.4%. In the case of `COc1cccc(OC)c1CN1CCCC(C(=O)c2cccc(Cl)c2)C1` (stereo not drawn) it was -7.07%; in that of `COc1cccc(NC(=S)N(CCc2c(C)[nH]c3ccccc23)Cc2cccs2)c1`, 10.1%; in that of `Cc1ccc(CNc2nc3ccccc3s2)s1`, -1.34%.

As to `O=[N+]([O-])c1ccc([N+](=O)[O-])c(Nc2ccc(N3CCOCC3)cc2)c1`, the “hERG current change (%, negative = inhibition) at 1uM” value turned out to be 9.8%.

With `Nc1c(Br)cc(Br)cc1CNC1CCC(O)CC1` (stereo not drawn), the “hERG current change (%, negative = inhibition) at 1uM” value is 10.1%. For `O=c1cc(CO)oc(CN2CCN(CCO)CC2)c1O`, the “hERG current change (%, negative = inhibition) at 1uM” value is reported as -8.32%. On to `COC(=O)c1sc(SC)c(S(=O)(=O)C(C)C)c1N`, for which the “hERG current change (%, negative = inhibition) at 1uM” value stood at 4.81%.

Regarding `Cc1ccc(N(NC(=O)C(C)(C)O)C(=O)c2ccccc2)cc1C`, the “hERG current change (%, negative = inhibition) at 1uM” value was 11.4%. In the case of `O=C1C(Cl)=C(NCC2CCCO2)C(=O)N1CCc1ccccc1` (stereo not drawn) it was -13%. For `Fc1ccc(/C=N/N2CCCCC2)c(F)c1`, the “hERG current change (%, negative = inhibition) at 1uM” value turned out to be 11.8%. Next, `O=C(Cn1nnc(-c2ccccc2)n1)NCc1cccs1`: 12.6%; `COc1ccc(N2CC(C(=O)Nc3ccc(S(=O)(=O)Nc4nccs4)cc3)CC2=O)cc1` (stereo not drawn): 16.5%. In the case of `COc1ccc(NC(=O)C(=O)N2N=C(C(C)C)CC2(O)C(F)(F)F)cc1` (stereo not drawn) it was 5.47%; in that of `CCOC(=O)c1cc(C#N)c(Oc2ccccc2)nc1-c1ccccc1`, 5.47%. Next, `O=[N+]([O-])c1ccccc1NC1CCN(Cc2ccccc2)CC1`: -26.7%; `Cc1nnc(N(C(=O)c2cnccn2)c2ccccc2)s1`: 19.8%; `CC1(C)C(=O)Nc2ccccc2N1C(=O)CN1C(=O)c2ccccc2C1=O`: -1.3%. In the case of `Cc1ccccc1NS(=O)(=O)c1cc2c3c(c1)C(C)C(=O)N3CCC2` (stereo not drawn), the “hERG current change (%, negative = inhibition) at 1uM” value was 11.3%. As for `CC(C)CCNC(=O)CCn1nc(-c2ccccc2)ccc1=O`, the “hERG current change (%, negative = inhibition) at 1uM” value is listed as -18.4%.

For the compound `Cc1nn(C(C)C(=O)NC2CCCCCC2)c(=O)c2nn(-c3ccccc3)c(C)c12` (stereo not drawn), the “hERG current change (%, negative = inhibition) at 1uM” value stood at 6.73%.

With `COc1cccc(C(C(=O)NC(C)(C)C)N(C(=O)CCC(=O)Nc2cc(C)on2)C(C)(C)C)c1OC` (stereo not drawn), the “hERG current change (%, negative = inhibition) at 1uM” value is on record as -0.281%. As for `Cc1cccc(C(=O)Nc2ccc(N3CCN(S(C)(=O)=O)CC3)cc2)c1`, the “hERG current change (%, negative = inhibition) at 1uM” value worked out at 15.3%. Next, `CCOc1cc(C(=O)NCc2ccc(-c3nc4ccccc4o3)cc2)cc(OCC)c1OCC`: 2.79%; `CC(C)(C)OC(=O)NCCc1nnc(S(=O)(=O)Cc2ccc(Cl)cc2Cl)o1`: -7.89%.

Consider `COc1ccc(NC(=O)/C=C/c2cccc(C(F)(F)F)c2)cn1`, for which the “hERG current change (%, negative = inhibition) at 1uM” value worked out at 12.5%. For `Cc1ccc(C)c(C(C)NC(=O)C2CC=CCC2C(=O)O)c1` (stereo not drawn), the “hERG current change (%, negative = inhibition) at 1uM” value was 11.3%.

For `CCCN(C(=O)COC(=O)C12CCC(=O)N1c1ccccc1S2)c1c(N)n(Cc2ccccc2)c(=O)[nH]c1=O` (stereo not drawn), the “hERG current change (%, negative = inhibition) at 1uM” value worked out at 11.1%.

Turning to `COC(=O)c1ccc(Nc2cc(C)nc(-c3ccccc3O)n2)cc1`, the “hERG current change (%, negative = inhibition) at 1uM” value was 14.7%. For `NC(=O)NC(=O)CSc1cccc(C(F)(F)F)c1`, the “hERG current change (%, negative = inhibition) at 1uM” value turned out to be 13%. In the case of `Cn1nnnc1SCC(=O)N1CCN(S(=O)(=O)c2ccccc2)CC1` it was 8.02%; in that of `Cc1ccc2c(c1)C1CN(C)CCC1N2C(=O)c1cccc(S(=O)(=O)N(C)C)c1.c1ccccc1` (stereo not drawn), 5.4%.

Turning to `COc1cccc(CN(C)C(=O)c2[nH]c(C)c(C(C)=O)c2C)c1OC`, the “hERG current change (%, negative = inhibition) at 1uM” value turned out to be 13.3%. `CCOC(=O)c1cc(NC(=O)NCc2ccco2)c(C)nc1C`: the “hERG current change (%, negative = inhibition) at 1uM” value amounted to 8.63%. In the case of `CC1CN(S(=O)(=O)c2ccc(C(=O)Nc3sccc3C(N)=O)cc2)CC(C)O1` (stereo not drawn) it was 0.0412%; in that of `O=C(NCc1ccccc1)C1=C[C@@H](c2ccccc2)C[C@@H](OCCCCO)O1`, -3.48%; in that of `CCOC(=O)CNc1nc(C#N)nc(N2CCOCC2)n1`, 9.03%. In the case of `CCn1c2ccccc2c2cc(NC(=O)c3ccco3)ccc21` it was 2.16%; in that of `CC(=O)c1cc2c(cc1N/C(=N/S(=O)(=O)c1ccc(Br)cc1)c1ccccc1)OCO2`, 13.7%; in that of `CC1CCN(S(=O)(=O)c2cccc(C(=O)Nc3nccs3)c2)CC1`, 2.66%. In the case of `CCOC(=O)Oc1c(OC)cc(C(=O)O[C@@H]2C[C@@H]3CN4CCc5c([nH]c6cc(OC)ccc56)[C@H]4C[C@@H]3[C@H](C(=O)OC)[C@H]2OC)cc1OC` it was 10.8%; in that of `Cc1cccc(NC(=O)c2cc(NC(=O)C3CCCCC3C(=O)O)ccc2N2CCOCC2)c1` (stereo not drawn), 10.6%.

For the compound `COc1ccc(Cl)cc1NC(=O)CN(C)C(=O)c1n[nH]c2ccccc12`, the “hERG current change (%, negative = inhibition) at 1uM” value turned out to be 5.21%. In the case of `C=C(C)c1sc(-c2ccccc2)nc1C` it was -7.65%. Next, `COc1ccc(C2Nc3cccc4cccc(c34)N2)cc1Br`: 8.67%. In the case of `Cc1ccccc1N1C(=O)/C(=C/c2ccco2)C(=O)NC1=S` it was 11.1%.

For the compound `COc1ccc(CCNc2nc3ccccc3n3nnnc23)cc1OC`, the “hERG current change (%, negative = inhibition) at 1uM” value is on record as 5.27%. Regarding `O=[N+]([O-])c1cccc(C(=NCc2ccccc2)NO)c1`, the “hERG current change (%, negative = inhibition) at 1uM” value was determined as 15.5%. In the case of `O=C(O)c1ccccc1C(=O)c1ccc(Br)s1` it was 16%; in that of `COc1cc(/C=N/NC(=O)c2ccncc2)ccc1OC(C)=O`, 10.6%.
